This is an account of results in ChEMBL document CHEMBL4888484, “Replenishing the malaria drug discovery pipeline: Screening and hit evaluation of the MMV Hit Generation Library 1 (HGL1) against asexual blood stage Plasmodium falciparum ,using a nano luciferase reporter read-out” (2022).

Among all 150,000 compounds or so, about 540 (0.36%) showed an effect of 50% or more. The list shows a part of the results.

The assay concerns Plasmodium falciparum. In words: Primary screen in NF54 nanoGlo assay, in single point, at 2uM, 72h; a lower Z score goes with more inhibition. It is filed as functional, Erythrocyte. The settings on record: timepoint 72 hour.
Usually % Inhibition stands for the drop in the measured response relative to a control, in per cent. On to `CC(C)(NC(=O)c1cccs1)c1nc(CC(N)=O)nn1CCO`, for which the “% Inhibition” value is on record as -1% and the Z score came to 0.05.
As to `COCC(NC(C)c1ccc(Br)o1)c1ccco1` (stereo not given), the “% Inhibition” value is on record as -6% and the Z score amounted to 0.63.
On the same counts, the results for `CN1CCN(C(C)(C)CNC(=O)c2csc(-c3ccco3)n2)CC1` are -1% and 0.16.
On to `CN(CC(c1ccccc1)c1ccccc1)[C@H]1COC[C@@H]1O`, for which the “% Inhibition” value is given as -10% and the Z score worked out at 1.87.
Turning to `CCn1nc(-n2cnnc2)c(NC(=O)c2ccc(C)cc2)c1C`, the “% Inhibition” value was 30% and the Z score is on record as -3.98.
Regarding `O=C(Nc1cccc(-c2noc(C3CCCC3)n2)c1)c1ccsc1`, the “% Inhibition” value is recorded as -24% and the Z score is reported as 4.1.
For `CCc1nnsc1C(=O)N1c2ccccc2C[C@@H]1C`, the “% Inhibition” value is reported as -8% and the Z score came to 0.77.
As to `CC1(C)[C@H]2CC[C@]1(C)[C@H](OC(=O)CCc1cscn1)C2`, the “% Inhibition” value is given as -6% and the Z score stood at 0.49.
On the same counts, the results for `O=C(CCCn1c(=O)[nH]c2ccc(Br)cc2c1=O)N1CCc2ccccc2C1` are -17% and 2.84.
For the molecule `Cc1ccc(Cc2cnc(NC(=O)NC[C@H](C)CN3CCN(C)CC3)s2)cc1`, the “% Inhibition” value amounted to 2% and the Z score is recorded as -0.24.
Take `Cc1ccc(NC[C@H]2CCN(Cc3cc(=O)n(C)c(=O)n3C)C2)nc1`: the “% Inhibition” value came to 11% and the Z score is reported as -2.19.
On to `O=C(C[C@@H]1NC(=O)c2ccccc2N=C1O)Nc1ccc(OC(F)(F)F)cc1`, for which the “% Inhibition” value is given as -3% and the Z score is on record as 0.41.
Regarding `OCc1ccnc(N[C@H]2CCCOC2)n1`, the “% Inhibition” value is on record as -6% and the Z score is reported as 1.03.
`C[C@H]1CN(c2cc(Cl)ccc2Cl)CCN1C(=O)CN1CCC(=O)NC1=O`: the “% Inhibition” value is -8% and the Z score turned out to be 1.38.
Consider `CCOc1ccccc1NC(=O)CN(C)C`, for which the “% Inhibition” value is reported as -5% and the Z score was 0.96.
`CS(=O)(=O)c1ccc(OC[C@H]2C[C@@H](NC(=O)c3cccnc3)[C@H](O)[C@@H]2O)cc1`: the “% Inhibition” value was -8% and the Z score came to 1.21.
Turning to `Cc1ccc(CNC(=O)[C@H]2CCC[C@H]2NC(=O)c2ccncc2)cc1`, the “% Inhibition” value was -3% and the Z score is 0.45.
Turning to `C[C@H](Nc1ccc2c(c1)OCO2)C(=O)N1CCCC1`, the “% Inhibition” value is reported as -8% and the Z score was 1.51.
With `COc1cccc(F)c1[C@H](C)NCc1nnc(C2CC2)n1C`, the “% Inhibition” value is 12% and the Z score is -1.04.
Regarding `CC[C@](O)(CNC(=O)c1cncnc1C1CC1)c1ccc(Cl)cc1`, the “% Inhibition” value is -1% and the Z score is 0.14.
On to `O=C(Nc1cnns1)N1CCCN(C(=O)[C@@H]2CCCO2)CC1`, for which the “% Inhibition” value is listed as -8% and the Z score came out at 1.42.
On the same counts, the results for `CCOC(=O)c1ncccc1NC(=O)C1C2CCCCC21` (stereo not given) are -10% and 1.49.
In the case of `Cn1cc(-c2cnn(-c3ccccn3)c2)cn1`, the “% Inhibition” value is given as 3% and the Z score is listed as -0.41.
Take `COc1cc(C(=O)N[C@H]2CC=CC[C@@H]2C(N)=O)ccn1`: the “% Inhibition” value is reported as -14% and the Z score is recorded as 1.5.
On the same counts, the results for `O=C(NCc1ccc(F)c(Cl)c1)c1nnn2c1c(=O)[nH]c1ccccc12` are 1% and -0.1.
For `CCc1sc(N(C(=O)C2CCCCC2)c2cccc(F)c2)nc1-c1ccccc1`, the “% Inhibition” value is given as 10% and the Z score was -1.28.
For the molecule `Cc1cc(C)n(-c2ccc(NCCNc3ncccc3C#N)nc2)n1`, the “% Inhibition” value is -11% and the Z score was 1.36.
`C[C@H]1CCCCN1CCNC(=O)c1cnc(-c2ccsc2)s1`: the “% Inhibition” value is reported as -7% and the Z score stood at 0.72.
On to `CN(C)Cc1ccc(CN2CCNC(=O)C2)c2c1OC(F)(F)O2`, for which the “% Inhibition” value is on record as -13% and the Z score stood at 1.8.
On the same counts, the results for `Cc1cccc(N2CCC(NC(=O)COc3ccc(N4CCN(C5CCCCC5)CC4)nn3)CC2)c1` are -10% and 1.12.
`CC(C)(NCc1ccc(F)cc1F)c1nc2c(c(C(N)=O)n1)OCO2`: the “% Inhibition” value came out at 8% and the Z score was -1.05.
With `Cc1ccc(CNC(=O)[C@H]2CCN(CC(F)(F)F)C2)nc1C`, the “% Inhibition” value was 4% and the Z score was -0.59.
Turning to `Nc1cc(=O)[nH]c(NCCc2ccccc2)n1`, the “% Inhibition” value is given as 5% and the Z score is given as -0.71.
On the same counts, the results for `CN(C)c1ccc(CN2CCCC[C@H](N)C2)cn1` are -4% and 0.83.
`C=CCNC(=O)C1CCC(c2cccc(C)c2)N(C(=O)c2ccc(F)cc2)C1` (stereo not given): the “% Inhibition” value is on record as -10% and the Z score came out at 0.94.
Take `N#Cc1ccc(OC2CCC(NC(=O)Nc3cccnc3)CC2)nc1` (stereo not given): the “% Inhibition” value is 3% and the Z score is -0.27.
As to `CC(=O)NC1(c2noc(C(F)(F)F)n2)CCCCCC1`, the “% Inhibition” value is on record as -9% and the Z score is listed as 1.78.
On the same counts, the results for `Cc1ccc(-n2nc3c(N4CCN(C(=O)Nc5ccc(C)c(Cl)c5)CC4)nnc(C)c3c2C)cc1` are -1% and 0.11.
Consider `O=C(CCc1nnc(CCCCc2ccccc2)o1)N1CCCC1`, for which the “% Inhibition” value is recorded as -9% and the Z score is reported as 1.38.
For the molecule `CC(C)c1nnc(CN2C[C@@H]3CCC[C@]3(C(N)=O)C2)o1`, the “% Inhibition” value was -2% and the Z score was determined as 0.41.
For the molecule `N#Cc1cn(-c2cccc(COC[C@H]3CCCCO3)c2)c(=O)[nH]c1=O`, the “% Inhibition” value was -14% and the Z score was 1.43.
For the molecule `c1ccc(-c2cnc3n2C[C@H](CNCc2c[nH]c4ccccc24)OC3)cc1`, the “% Inhibition” value is given as 5% and the Z score was -0.84.
On the same counts, the results for `Cc1cccc(NC(=O)CC2(C(=O)O)Cc3ccccc3C2)c1` are -2% and 0.26.
Regarding `CCOc1ncccc1-c1cnn([C@@H]2CCCCO2)c1`, the “% Inhibition” value is recorded as -10% and the Z score amounted to 0.94.
On to `Cn1cc(CNC2CCCCCC2C(N)=O)cn1` (stereo not given), for which the “% Inhibition” value was -9% and the Z score turned out to be 1.43.
Consider `COc1cc(CN(C)[C@H]2CCc3nnc(C4CCOCC4)n3CC2)cc(OC)c1`, for which the “% Inhibition” value stood at 45% and the Z score is listed as -6.02.
For `Cn1c(CNC(=O)CC2(CS(C)(=O)=O)CC2)nc2ccc(F)cc21`, the “% Inhibition” value is -2% and the Z score stood at 0.27.
For `O=C(COc1ccc(Cl)cc1)N1CCn2cnnc2C1`, the “% Inhibition” value was 5% and the Z score is on record as -0.89.
With `CN(C)c1ccc2c(c1)CN(C(=O)c1ccn(C)n1)CCO2`, the “% Inhibition” value was -3% and the Z score was 0.53.
On to `COC(=O)[C@H]1CC[C@H](C(=O)N2CCC3CCC(C2)N3C(C)C)CC1` (stereo not given in full), for which the “% Inhibition” value is -2% and the Z score turned out to be 0.19.
Regarding `O=C(CCOc1ccccc1Cl)NCCN1CCOCC1`, the “% Inhibition” value is -11% and the Z score is on record as 1.47.
With `O=S(=O)(Cc1cc(Cl)cc(Cl)c1)NCCCCn1ccnc1`, the “% Inhibition” value stood at 33% and the Z score was -4.43.
Consider `C[C@H](NCC(=O)Nc1ccc2c(c1)OC1(CCCCC1)O2)c1ccc(F)c(F)c1`, for which the “% Inhibition” value is -8% and the Z score came out at 1.02.
For the molecule `O=C(NCc1cccnc1)[C@H]1CC(=O)N(CCc2c[nH]c3ccc(Cl)cc23)C1`, the “% Inhibition” value is -5% and the Z score came out at 0.91.
`CC(C)[C@H](NC(=O)c1n[nH]c2c1CCC2)c1nc2ccccc2n1C(C)C`: the “% Inhibition” value is -10% and the Z score is reported as 1.88.
Take `Cc1cccc2[nH]c(COC(=O)C3CCCC3)cc12`: the “% Inhibition” value is -8% and the Z score stood at 1.26.
Consider `C[C@H]1c2ccsc2CCN1C(=O)c1ccc(C(N)=O)cn1`, for which the “% Inhibition” value came out at 0% and the Z score amounted to 0.04.
With `O=C(NCc1ccco1)c1cccc(Nc2c(Oc3ccc(Cl)cc3)cnn(-c3cccc(Cl)c3)c2=O)c1`, the “% Inhibition” value is on record as -18% and the Z score is reported as 2.58.
`CC(C)C(NC(=O)C1CCCCC1C)C(=O)N1CC=C(c2ccccc2)CC1` (stereo not given): the “% Inhibition” value is 34% and the Z score is given as -3.84.
On the same counts, the results for `COc1cccc([C@H]2N(c3cccc(Cl)c3)C(=O)[C@@H]3CCCN32)c1OC` are -5% and 0.71.
As for `C[C@@]1(C(=O)NC2CCCCCC2)Cn2c(nc3ccccc32)C(=O)N1CCc1ccccc1`, the “% Inhibition” value is -24% and the Z score was determined as 2.36.
Turning to `C[C@@H](C(=O)NCc1cccs1)N1CCn2ccnc2C1`, the “% Inhibition” value is recorded as -14% and the Z score was 1.77.
On the same counts, the results for `Cn1nnnc1N1CCC[C@H](CNc2ccc(Cl)cc2)C1` are -17% and 2.72.
For the molecule `COc1ccccc1OCC(=O)Nc1cnoc1`, the “% Inhibition” value was -11% and the Z score was 1.76.
For `O=C1C[C@H](N2CCCCC2)C(=O)N1Cc1ccccc1`, the “% Inhibition” value was -7% and the Z score was found to be 0.84.
As for `C[C@H](NC(=O)CCn1cnnn1)C1=CCCCC1`, the “% Inhibition” value is given as 4% and the Z score is -0.57.
Consider `Cc1ccc(C(=O)N[C@@H]2CCC[C@@H]2C(=O)N2CCc3ccccc3C2)c(O)n1`, for which the “% Inhibition” value was 4% and the Z score was -0.67.
Regarding `O=C(NCCc1ccccc1)C1=Cc2ccccc2OC1`, the “% Inhibition” value was -3% and the Z score was determined as 0.24.
As for `O=C(c1cn(-c2ccc(F)cc2F)c(=O)c2ccccc12)N1CCC(Cc2ccccc2)CC1`, the “% Inhibition” value is listed as 11% and the Z score is recorded as -1.26.
On to `CS(=O)(=O)N[C@H]1CCN(Cc2cnc(-c3ccccc3)o2)C1`, for which the “% Inhibition” value is recorded as -8% and the Z score was 1.31.
As for `Cc1cc2nc(C)c(=O)n(Cc3ccc(C(=O)NC4CCCCC4)cc3)c2cc1C`, the “% Inhibition” value is -6% and the Z score is listed as 0.93.
`COc1ccccc1NS(=O)(=O)c1cc(-c2cnc(C)o2)ccc1OC`: the “% Inhibition” value was -7% and the Z score is on record as 1.26.
Consider `Cc1ccc(NC(=O)Nc2nc(C(=O)N3CCN(Cc4ccc5c(c4)OCO5)CC3)cs2)cc1`, for which the “% Inhibition” value is 3% and the Z score is given as -0.39.
`CC(C)(O)[C@@H]1CCCN1C(=O)c1ccc(-c2ncon2)cc1`: the “% Inhibition” value is given as -10% and the Z score is recorded as 1.02.
On the same counts, the results for `CCCCNc1nnc(-c2nn(C)cc2Cl)s1` are -27% and 3.94.
Turning to `CC#CCCNC(=O)CCCOc1ccc(C)c(C)c1`, the “% Inhibition” value amounted to 6% and the Z score is recorded as -0.7.
For the molecule `Cc1ccsc1-c1cn(Cc2nc3ccc(Cl)cc3[nH]2)nn1`, the “% Inhibition” value was -5% and the Z score is listed as 0.62.
With `O=C(CN1CCCCCCC1)N1CCCc2ccccc21`, the “% Inhibition” value amounted to 5% and the Z score was -0.71.
Consider `COc1cccc([C@@H](O)Cn2cnc(C(C)(C)C)cc2=O)c1`, for which the “% Inhibition” value came out at 3% and the Z score is reported as -0.43.
Take `COc1ccc(CC(=O)N2CC3(C[C@H](N4CCCCC4)CO3)C2)cc1`: the “% Inhibition” value is listed as -5% and the Z score is recorded as 0.75.
Consider `O=C(CCC[C@@H]1[C@H]2CCCN3CCC[C@@H](CN1C(=O)c1ccccc1)[C@@H]23)Nc1ccc(N2CCOCC2)cc1`, for which the “% Inhibition” value stood at 11% and the Z score was -2.16.
For `CNC(=O)Nc1ccc(Cl)c(C(=O)O)c1`, the “% Inhibition” value is on record as -7% and the Z score is 0.82.
For `Cc1nc(CC(=O)NCc2ccccc2C(F)(F)F)sc1C(=O)NCC(C)C`, the “% Inhibition” value came to 3% and the Z score is -0.42.
On to `CCN1CCC(N(C)CCn2cncn2)C(C)C1` (stereo not given), for which the “% Inhibition” value is listed as -9% and the Z score stood at 0.8.
As for `O=C(NC1CCCCCC1)[C@H]1CC(=O)N(c2[nH]nc3cccc(F)c23)C1`, the “% Inhibition” value is on record as 12% and the Z score is given as -1.51.
